Data reported in article PMC4336329 (PLoS ONE, 2015).
About 2,200 (0.71%) of roughly 310,000 compounds showed an effect of 50% or more. Effects have a minus sign here. The list shows a part of the results. Where a SMILES comes first, the peptide text is derived from it. The star is where a group is joined. Boc = CC(C)(C)OC(=O)*; Bn = c1ccc(C*)cc1

These molecules were tested against human ether-à-go-go-related gene (hERG) potassium channel (human, UniProt Q12809) (assay: primary screen, population patch clamp on CHO cells stably expressing hERG).
Sequence of human ether-à-go-go-related gene (hERG) potassium channel (Q12809 whole entry, looked up): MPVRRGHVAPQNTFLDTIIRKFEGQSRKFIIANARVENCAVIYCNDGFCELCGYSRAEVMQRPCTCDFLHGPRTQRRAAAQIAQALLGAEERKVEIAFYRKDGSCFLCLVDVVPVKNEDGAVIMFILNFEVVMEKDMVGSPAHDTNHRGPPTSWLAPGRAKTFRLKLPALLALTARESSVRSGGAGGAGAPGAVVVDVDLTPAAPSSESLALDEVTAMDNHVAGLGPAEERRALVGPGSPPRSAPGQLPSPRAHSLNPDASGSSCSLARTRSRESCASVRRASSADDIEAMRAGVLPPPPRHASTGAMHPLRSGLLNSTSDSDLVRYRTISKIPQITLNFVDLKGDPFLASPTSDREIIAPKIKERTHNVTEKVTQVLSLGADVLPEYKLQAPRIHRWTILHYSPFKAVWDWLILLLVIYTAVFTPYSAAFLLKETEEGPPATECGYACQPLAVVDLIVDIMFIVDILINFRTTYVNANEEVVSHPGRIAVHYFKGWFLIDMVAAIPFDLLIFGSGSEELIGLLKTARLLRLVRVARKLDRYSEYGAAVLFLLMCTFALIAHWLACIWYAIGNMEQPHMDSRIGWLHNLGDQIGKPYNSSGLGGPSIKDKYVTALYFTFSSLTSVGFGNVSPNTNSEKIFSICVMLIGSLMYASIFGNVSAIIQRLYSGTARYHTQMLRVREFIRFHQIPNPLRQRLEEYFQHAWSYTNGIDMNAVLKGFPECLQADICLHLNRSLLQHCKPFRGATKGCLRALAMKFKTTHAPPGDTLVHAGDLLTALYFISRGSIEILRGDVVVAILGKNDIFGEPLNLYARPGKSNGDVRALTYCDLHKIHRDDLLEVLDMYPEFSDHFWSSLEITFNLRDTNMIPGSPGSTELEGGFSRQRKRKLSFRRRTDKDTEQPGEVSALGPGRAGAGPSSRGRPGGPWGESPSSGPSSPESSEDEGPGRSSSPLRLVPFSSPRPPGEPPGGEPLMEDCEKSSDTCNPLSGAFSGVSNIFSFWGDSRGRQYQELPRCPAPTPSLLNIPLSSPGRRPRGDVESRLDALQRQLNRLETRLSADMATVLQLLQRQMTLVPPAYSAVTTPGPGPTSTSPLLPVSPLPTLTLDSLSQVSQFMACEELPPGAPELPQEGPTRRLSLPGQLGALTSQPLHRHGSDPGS

| Compound | hERG current change (%, negative = inhibition) at 1uM [%] |
| --- | --- |
| O=C(O)CN1C(=O)c2ccc(C(=O)c3ccccc3)cc2C1=O | 10.9 |
| CC1CCCc2sc3nc(NCc4ccco4)n4ncnc4c3c21 (stereo not drawn) | 11.6 |
| CCCCn1c(=O)[nH]c(=O)c2c1nc(CN(C)Cc1cccc(OC)c1OC)n2CCC.O=C(O)C(=O)O | 11.6 |
| CC1=NN(c2ccc(Br)cc2)C(=O)/C1=C/c1ccc(-c2ccccc2C(=O)O)o1 | 14 |
| CC(C)CC(NC(=O)C(NC(=O)C(Cc1ccc(OCc2ccccc2)cc1)NC(=O)OC(C)(C)C)C(C)C)C(N)=O (stereo not drawn) (Boc-Tyr(Bn)-Val-Leu-NH2; configuration not given here) | 4.92 |
| CCOC(=O)c1ccc(NC(=O)NCCN2CCCCC2)cc1 | -10.5 |
| N[C@@H](Cc1ccccc1)c1nnc2sc(SCc3ccccc3)nn12 | -2.28 |
| COc1cc(/C=C(\CC(=O)O)c2nc3ccccc3s2)cc(OC)c1O | 9.4 |
| CCCCNC(=O)NCCN1CCOCC1 | 26.8 |
| C=CCNC(=O)CN(c1cccc(Br)c1)S(C)(=O)=O | -6.39 |
| C=CCOc1ccc(/C=C/C(=O)OCC(=O)N(C)CC(=O)Nc2ccccc2Cl)cc1 | 7.77 |
| O=C(NCCC(=O)N1CCN(C(=O)c2ccco2)CC1)c1ccc(Br)cc1 | 7.57 |
| Cc1ccc2c(c1)NC(=O)C(CC(=O)O)O2 (stereo not drawn) | 13 |
| COc1ccccc1NC(=O)C1=C(C)NC(=O)NC1c1ccc(C)s1 (stereo not drawn) | 12.8 |
| COc1ccc(Cl)cc1S(=O)(=O)Nc1ccc(Cl)cn1 | 12.6 |
| CN1CCN(c2nc3c(c(=O)n(C)c(=O)n3C)n2CC(N)=O)CC1 | -2.4 |
| CCN(CC)S(=O)(=O)c1ccc(N2CCOCC2)c(NC(=O)CC2OC(=O)c3ccccc32)c1 (stereo not drawn) | 5.89 |
| CN(Cc1cccs1)C(=O)CN1C(=O)c2ccccc2S1(=O)=O | 6.04 |
| CCC(Oc1ccccc1)C(=O)Nc1nnc(S(=O)(=O)N2CCCC2)s1 (stereo not drawn) | 16.7 |
| CC1CCCC(NC(=O)C2CCN(S(=O)(=O)c3cnc[nH]3)CC2)C1C (stereo not drawn) | 3.52 |
| Cc1nc(Nc2cccc(F)c2)c2oc3ccccc3c2n1 | 8.71 |
| O=C(O)CC(Cc1ccc(Cl)cc1)C(=O)NCc1ccccc1 (stereo not drawn) | 6.22 |

| Compound | hERG current change (%, negative = inhibition) at 1uM [%] |
| --- | --- |
| CNC(=O)c1ccsc1NC(=O)C1CCN(S(=O)(=O)c2cccs2)CC1 | 0.629 |
| CCOC(=O)C1(CCCc2ccccc2)CCN(Cc2cn(CC)nc2C)CC1 | -59.8 |
| Cc1nc(NC(=O)c2cccs2)ccc1Br | 12.8 |
| CC1(c2ccc(Cl)cc2Cl)OCC(Cn2ccnc2)O1.O=C(O)C(=O)O (stereo not drawn) | 11.4 |
| COc1ccc(Cc2nnc(N/N=C/c3ccc(C)o3)[nH]c2=O)cc1 | 14.1 |
| COc1ccc(CCNC(=O)CCC(=O)NC2CCCCC2)cc1OC | 10.5 |
| CSc1nncc(/C(C)=N/O)n1 | 8.11 |
| CCCCSc1ccc(NC(=O)c2cccnc2)cc1 | 10.1 |
| CCn1cnc2sc(C(=O)Nc3ccccc3OC)c(C)c2c1=O | 6.38 |
| COC(=O)C1=C(c2ccc(F)cc2OCc2ccccc2)C[C@@H]2CC[C@H]1N2C(=O)NCCOc1ccccc1Cl | 7.93 |
| CCOC(=O)c1ccc(S(=O)(=O)N2CCNCC2)cc1 | 0.0993 |
| CCOC(=O)CSc1nc2ccc(C)cc2[nH]1.Cl | 9.46 |
| CC(=O)OC[C@H]1O[C@H](C/C=N/OC[C@@H](O)[C@H]2O[C@@H]3OC(C)(C)O[C@@H]3[C@H]2O)C=C[C@@H]1OC(C)=O | 3.95 |
| CC(C)OCc1c(C(=O)OC/C(O)=C(\C#N)c2nc3ccccc3[nH]2)oc2ccccc12 | 7.53 |
| CCCCN(CCCC)S(=O)(=O)c1ccc(NC(=O)Cc2cccs2)cc1 | 14.2 |
| CC1CCCN(C(C(=O)Nc2ccc(C(C)C)cc2)c2ccc3c(c2)OCO3)C1 (stereo not drawn) | 10.6 |
| Cc1ccc2cccc(Oc3ccc([N+](=O)[O-])cc3[N+](=O)[O-])c2n1 | 14.5 |
| Cn1nc(C(F)(F)F)c(-c2ccc(F)cc2)c1NC(=O)c1cccnc1 | 8 |
| COCCN(C(=O)COC(=O)c1c(NC(C)=O)sc(C)c1C)c1c(N)n(Cc2ccccc2)c(=O)[nH]c1=O | -8.34 |
| CC(C)N1CCNCC1.Cl | 12.2 |
| COc1cccc(C2CC(=O)N3CN(c4ccccc4F)CSC3=C2C#N)c1 (stereo not drawn) | 7.39 |
| COc1ccc(OC)c(Nc2cc(C)nc3ccc(C)cc23)c1 | -35 |

| Compound | hERG current change (%, negative = inhibition) at 1uM [%] |
| --- | --- |
| CS(=O)(=O)N(CCc1ccccc1)CC(=O)NCc1ccco1 | 10 |
| O=C(NCCN1C(=O)S/C(=C\c2ccc(Cl)cc2)C1=O)c1ccc(F)c(S(=O)(=O)N2CCOCC2)c1 | 0.812 |
| CC(SC(=S)N1CCCC1)C(=O)O (stereo not drawn) | 12.8 |
| O=C(NC(=S)NCCC1=CCCCC1)c1ccccc1Br | 9.72 |
| COc1ccc(CCC(=O)NCCS(=O)(=O)N2CCN(c3ccc(F)cc3)CC2)cc1 | -18.6 |
| O=C(CN1c2ccccc2Sc2ccccc21)N/N=C/c1ccccc1 | 3.12 |
| COc1ccccc1-n1c(O)c(/C=C2\C=Nc3ccccc32)c(=O)[nH]c1=O | 11.9 |
| CCN1CCN(C(=O)C(C)N(c2ccc(C)cc2)S(C)(=O)=O)CC1 (stereo not drawn) | 14.7 |
| CC1C=CCC2C(=O)N(c3cccc(C(=O)NCCc4ccccc4)c3)C(=O)C12 (stereo not drawn) | 6.34 |
| COc1ccc(C(=O)OC2CCCCC2CN(C)C)cc1.Cl (stereo not drawn) | 11.5 |
| CC(C)CCn1nc(C(=O)OC(C)C(=O)NC(N)=O)c2ccccc2c1=O (stereo not drawn) | 7.68 |
| CC1=C(C(=O)NCc2ccccc2)C(c2cccs2)n2ncnc2N1 (stereo not drawn) | 1.76 |
| Cc1ccc2nc(-c3ccccn3)cc(C(=O)NC(C)C(C)(C)C)c2c1 (stereo not drawn) | 7.41 |
| COc1ccccc1NC(=O)Nc1cc(C(C)(C)C)nn1C | 7.6 |
| Cc1cc(C)c2sc(NC(=O)C3=COCCO3)nc2c1 | 7.36 |
| O=C(c1cccc(-c2nnc(-c3ccccc3)o2)c1)N1CCCCC1 | -5.13 |
| Br.C=CCN1C(c2ccccc2)=CS/C1=C(\C#N)c1nnc2n1CCCCC2 | -31.5 |
| Cc1cccc(NS(=O)(=O)c2ccc(C)c(C(=O)NCC(c3ccccc3)N(C)C)c2)c1 (stereo not drawn) | 3.09 |
| Cc1nc(Cl)sc1C(=O)Nc1ccccc1Cl | 15.3 |
| COc1ccc(CNC(=O)C2CCN(S(=O)(=O)c3ccc4c(c3)C(C)(C)C(=O)N4C)CC2)cc1 | 10.1 |
| CN(C)CCCn1c(SCCN2C(=O)c3ccccc3C2=O)nc2ccccc2c1=O | -19.9 |
| O=C(COc1ccccc1Cl)NCc1ccncc1 | -4.33 |

| Compound | hERG current change (%, negative = inhibition) at 1uM [%] |
| --- | --- |
| O=C(NC(=S)Nc1cccc([N+](=O)[O-])c1)C1CCCC1 | 8.11 |
| O=C(c1ccnc(Cl)c1)N1CCCC(Nc2ccc(F)cc2)C1 (stereo not drawn) | 14.7 |
| COc1ccc(OC)c(S(=O)(=O)Nc2cc3c4c(c2)CCC(=O)N4CCC3)c1 | 14.9 |
| Cc1ccnc(NC(=O)c2ccccc2NC(=O)c2ccccc2)c1 | 10.4 |
| Cc1cc(OCCCC(=O)NC2=NCCS2)ccc1Cl | 18.6 |
| CCn1cnc2cc(NC(=O)c3ccc(C)cc3)ccc21 | 13.4 |
| COc1ccc(NC(=O)CN(C)CC(=O)Nc2cccc(C(F)(F)F)c2)cc1 | 9.22 |
| CCOC(=O)C1C(=O)C=C(c2ccc([N+](=O)[O-])cc2)CC1c1ccccc1 (stereo not drawn) | -34.5 |
| CCOC(=O)C1CCCN(CC(=O)Nc2cccc(C(C)=O)c2)C1 (stereo not drawn) | 21 |
| O=C(Cn1c(=O)c2ccccc2n(CC(=O)N2CCCCC2)c1=O)N1CCCCC1 | 7.2 |
| O=C(NCCN1CCOCC1)C(Sc1ccccc1)c1ccccc1 (stereo not drawn) | 3.69 |
| c1ccc(-c2nnc3n2N=C(c2ccc4c(c2)OCO4)CS3)nc1 | -18.4 |
| O=S(=O)(c1ccc(Cl)cc1)N1CCN(C(=S)Nc2ccc(F)c(Cl)c2)CC1 | 9.01 |
| NC(=O)c1c(Nc2nc3c(F)cccc3s2)sc2c1CCCC2 | 17.1 |
| CCOc1ccccc1NC(=O)C1CCCN(C(=O)NCc2ccccc2)C1 (stereo not drawn) | 14.2 |
| Cc1ccc(S(=O)(=O)NC(=O)C2CCCCC2)cc1 | 7.15 |
| CC(Oc1ccc(Br)cc1)C(=O)NC1CCN(Cc2ccccc2)CC1 (stereo not drawn) | -59.6 |
| Cc1[nH]c(=O)c(C#N)c(C)c1CCC(=O)N(C)CC(=O)Nc1ccc(Cl)c(Cl)c1 | 16.1 |
| O=C(COC(=O)Cn1cnc2ccccc2c1=O)Nc1ccccc1Sc1ccc(Cl)cc1 | 2.51 |
| CCOc1ccc(-n2ccnc2SCC(=O)Nc2nnc(CC)s2)cc1 | -2.2 |
| COc1cnc(SCCC(F)=C(F)F)[nH]c1=O | 16.6 |
